The campaign covered roughly 48,000 compounds. About 1,200 (2.5%) were called active. Not shown: some 2% with an inconclusive outcome.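 Rule for the calls: active = activation of at least 60% and not above a set upper limit (about 1 call in 100 departs from these limits); inconclusive = activation of 40% to 60%, or above that upper limit; inactive = activation under 40%.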 The list shows a part of the results.
target: Probable G-protein coupled receptor 32 (Homo sapiens) (UniProt O75388); experiment: qHTS for Agonists of Human Resolvin D1 Receptor DRV1; details: CHO-K1 GPR32 beta-arrestin PathHunter luminescence, 90 min; at 76.9 µM; stronger effect = higher value; zero percent set by DMSO-only wells; note: 0% is about no effect
UniProt O75388, sequence (O75388 whole entry, looked up): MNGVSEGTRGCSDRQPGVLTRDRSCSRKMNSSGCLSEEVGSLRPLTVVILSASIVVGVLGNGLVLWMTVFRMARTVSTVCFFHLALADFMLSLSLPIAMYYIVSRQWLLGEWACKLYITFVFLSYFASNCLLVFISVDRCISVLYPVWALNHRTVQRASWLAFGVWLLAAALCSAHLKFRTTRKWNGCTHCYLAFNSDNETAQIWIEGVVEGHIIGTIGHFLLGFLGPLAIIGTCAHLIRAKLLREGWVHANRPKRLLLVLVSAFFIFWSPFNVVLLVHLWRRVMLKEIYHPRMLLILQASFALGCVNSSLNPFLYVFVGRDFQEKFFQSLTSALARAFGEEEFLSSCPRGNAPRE
Procedure, shortened: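 Cells are plated overnight, treated with compounds in DMSO for 90 minutes at 37 °C, and developed with PathHunter detection reagent for 1 hour before luminescence is read; signal reflects beta-arrestin binding to GPR32 in engineered CHO-K1 cells.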

Structure (SMILES) | activation
CCOC(=O)CSc1nc2ccc(NC(=O)COc3ccc(F)cc3)cc2s1 | inactive: 16.8%
Cc1cccc2sc(N(Cc3cccnc3)C(=O)CCOc3ccccc3)nc12 | inactive: -38.1%
CCOC(=O)c1ccc(N2CCN(c3ccccc3OC)CC2)c(NC(=O)Nc2ccc(CC)cc2)c1 | inactive: -30.7%
CCOCCCNC(=O)c1cn(CC)c2ccc(S(=O)(=O)N3CCOCC3)cc2c1=O | inactive: -3.94%
Cc1cc(C(=O)N2CCN(c3cccc(Cl)c3)CC2)c2c(C)nn(-c3ccccc3Cl)c2n1 | inactive: -0.675%
COc1ccc(CNC(=O)C2=CC(c3ccc(OC)c(OC)c3)=NS(=O)(=O)N2C)cc1 | inactive: -11.1%
O=C(COc1ccc(Cl)cc1)Nc1ccc2nc(SCC(=O)N3CCOCC3)sc2c1 | inactive: 16.2%
CCOc1ccc(S(=O)(=O)NCc2ccc3c(c2)CCN3C(=O)c2ccc(C)cc2)cc1 | inactive: -17.2%
Cc1ccc(NCc2cc3cc4c(cc3n(CC(=O)Nc3ccc(F)cc3F)c2=O)OCCO4)cc1 | inactive: -3.72%
COc1ccc(S(=O)(=O)Nc2cc(-c3cn4ccc(C)cc4n3)ccc2C)cc1OC | inactive: -5.23%
Cc1nnc2c3ccccc3nc(Nc3ccccc3C(=O)O)n12 | inactive: 9.32%
CCn1ccc2cc(S(=O)(=O)N3CCC(C(=O)NCC(C)c4ccccc4)CC3)ccc21 (configuration not stated) | inactive: 28.3%
Cc1ccc(NC(=O)CSc2nc3ccccc3nc2Cc2ccccc2)c(Cl)c1 | inactive: -1.25%
Cc1ccc(Cl)cc1NC(=O)c1nnn(Cc2ccccc2)c1N | inactive: 21.3%
Cc1ccc(-n2ncc(C(=O)NCc3ccccn3)c2C2CCN(C(=O)OC(C)(C)C)CC2)cc1C | inactive: -21.3%
COc1cccc(CNC(=O)C2CCN(Cc3cc4ccccc4n3Cc3ccccc3)CC2)c1OC | inactive: -6.09%
CCOC(=O)c1cccc(NC(=O)CSc2cc(=O)n(C)c3ccccc23)c1 | inactive: -6.19%
CCN(CC)CCNC(=O)c1ccc(-c2nc(CN3CCc4ccccc43)c(C)o2)cc1 | active: 97.3%
Cc1ccc(CN2c3ccccc3-c3nc(SCC(=O)NCCc4ccccc4)ncc3S2(=O)=O)cc1 | inactive: 0.0815%
CCOC(=O)c1ccc(Oc2nc(C)nc3c2oc2ccccc23)cc1 | inactive: -3.12%
Clc1ccc(CN2CCc3nc(N4CCN(c5ccccn5)CC4)ncc3C2)cc1 | inactive: 18.8%

Structure (SMILES) | activation
O=C(CN1C(=O)C2(SCC(=O)N2c2cccc(F)c2)c2ccccc21)NCc1ccccc1Cl (configuration not stated) | inactive: -10.3%
Cc1nnsc1C(=O)Oc1ccc(C#N)cc1 | inactive: 19.4%
O=C(/C=C/c1ccccc1)Nc1nc2n(n1)C(c1ccc(Cl)cc1)C=C(c1ccccc1)N2 (configuration not stated) | inactive: -23.8%
CCOC(=O)c1cc(-c2ccccc2)n(CCCC(=O)Nc2cccc(C)c2)c1C | inactive: -31%
CCCOc1ccc(NC(=O)CC2C(=O)N(c3ccc(OC)cc3)C(=O)N2CCc2ccncc2)cc1 (configuration not stated) | inactive: -19.8%
CCc1nc2ccccc2n1CCCCOc1cccc(C)c1 | inactive: 18.2%
CC(C)CC(=O)NCC(c1ccc2c(c1)OCO2)N1CCN(c2ccc(F)cc2)CC1 (configuration not stated) | inactive: -26.9%
CC(C)(C)c1ccc(S(=O)(=O)c2cnc(SCC(=O)Nc3ccc4c(c3)OCCO4)[nH]c2=O)cc1 | inactive: -16.5%
Cc1ccc2oc(C(=O)Nc3ccc(S(=O)(=O)N4CCCCCC4)cc3)cc(=O)c2c1 | inactive: 8.69%
CCOC(=O)c1cc(C)n(CC2CCC(C(=O)Nc3ccc(OC)c(OC)c3)CC2)c1C (configuration not stated) | inactive: -4.39%
CCc1ccc(NC(=O)c2sc(-n3nc(C)c(Cc4ccc5c(c4)OCO5)c3C)nc2C)cc1 | inactive: -1.19%
Cc1cc(C)cc(NS(=O)(=O)c2c(C)nc3scc(C)n3c2=O)c1 | inactive: 0.198%
O=C(Oc1ccccc1F)c1nc(SCc2ccccc2F)ncc1Cl | inactive: 13.6%
CCOc1ccccc1NC(=O)Cn1c(=O)n(-c2ccc(C)c(C)c2)c(=O)c2oc3ccccc3c21 | inactive: -5.48%
CC(C)Cn1cnc2c(N)nc3ccccc3c21 | inactive: 16%
COc1ccccc1NC(=O)Cn1nc2c3cc(F)ccc3n(Cc3cccc(C)c3)cc-2c1=O | inactive: -6.85%
COc1ccc(Nc2ncc3c(n2)CCN(Cc2cccc(F)c2F)C3)c(OC)c1 | inactive: 5.67%
Cc1ccc2nc(-c3cccc(NC(=O)CSc4ccc(Cl)cc4)c3)oc2c1 | inactive: -24.5%
CCN1CCC(N(Cc2ccc3c(c2)OCO3)C(=O)Nc2cccc(C)c2C)CC1 | inactive: -6.8%
CC(=O)N1CCCc2cc(S(=O)(=O)NCc3ccccc3Cl)ccc21 | inactive: -3.56%
CCc1ccc(Nc2nc3c(S(=O)(=O)c4ccc(C)cc4)nnn3c3ccsc23)cc1 | inactive: -20.6%

Structure (SMILES) | activation
CCN(Cc1ccccc1)C(=O)C1CCC(CNS(=O)(=O)c2ccc3c(c2)CCCC(=O)N3)CC1 (configuration not stated) | inactive: -17.7%
Cc1ccc(C)c(NC(=O)c2cc(S(=O)(=O)N3CCN(c4cccc(Cl)c4)CC3)ccc2F)c1 | inactive: -19.1%
Cc1ccc(NC(=O)Cn2c(=O)n(-c3ccccc3)c(=O)c3ccc(C(=O)NCc4ccc5c(c4)OCO5)cc32)cc1 | inactive: -0.921%
CCN(C(=O)Cn1cc(S(=O)(=O)N2CCN(c3ccccc3F)CC2)c2ccccc2c1=O)c1ccc(C)c(C)c1 | inactive: -1.83%
Oc1c(C(c2ccccc2Cl)N2CCC(O)CC2)sc2nc(-c3ccco3)nn12 (configuration not stated) | inactive: -8.22%
O=C(Nc1ccccc1C(F)(F)F)c1noc2c1CCCC2 | inactive: -1.13%
Cc1ccc(S(=O)(=O)c2nnn3c2nc(N2CCCC(C)C2)c2cc(Cl)ccc23)cc1C (configuration not stated) | inactive: -3.24%
COc1ccc(-c2cc(OC(=O)c3ccccc3Cl)c3c(C)oc(C)c3c(=O)c2)cc1OC | inactive: -7.62%
COc1cc(OC)c(NS(=O)(=O)c2c(C)nc3sc(C)cn3c2=O)cc1Cl | inactive: 14.7%
Cc1cc(C)c(NC(=O)CSc2nc3nccnc3c(=O)n2CCc2c[nH]c3ccccc23)c(C)c1 | inactive: -2.41%
CCc1nnc(SCc2cccc(Cl)c2)c2cc3sccc3n12 | inactive: -22.2%
Cc1cc(F)ccc1NC(=O)Cn1nc(N2CCN(c3ccccc3)CC2)ccc1=O | inactive: -3.74%
Cc1ccc(-c2noc(-c3cccnc3NCc3ccco3)n2)cc1 | inactive: -3.66%
COc1ccc(CNC(=O)CN2C(=O)COc3ccc(S(=O)(=O)N4CCCCC4)cc32)cc1 | inactive: -25.1%
O=C(Cn1cc(SCc2ccc(F)cc2)c2ccccc21)N1CCCCC1 | inactive: -16.5%
Cc1ccc(Cn2c(C)c3cnn(CC(=O)O)c(=O)c3c2C)cc1 | inactive: -12.9%
O=C(Nc1cccc(C(=O)OCc2cc(=O)n3c4c(sc3n2)CCCC4)c1)c1ccc(Cl)cc1 | inactive: -14.8%
COc1ccc(NC(=O)Cn2c(=O)n(CCCCCC(=O)NCc3ccc4c(c3)OCO4)c(=O)c3sccc32)cc1Cl | inactive: -18.9%
CCCSc1oc(-c2cccs2)nc1S(=O)(=O)c1ccc(C)cc1 | inactive: -20%
O=C(NCc1ccccc1)c1cnc2sc(N3CCCC3)nn2c1=O | inactive: -6.92%
COc1ccc(C)cc1NC(=O)c1sc2nc(-c3ccc(F)cc3)cn2c1C | inactive: -5.43%

Structure (SMILES) | activation
CCN(CC)C(=O)c1sc2c(c1C)c(=O)n(Cc1ccccc1)c(=O)n2Cc1cc(C)ccc1C | inactive: -13.5%
CCOc1cc(S(=O)(=O)NCCc2c(C)[nH]c3ccc(C)cc23)ccc1F | inactive: 26.3%
COc1ccc2c(c1)c(CC(=O)Nc1cc(C)cc(C)c1)c(C)n2C(=O)c1ccc(Cl)cc1 | inactive: -15.9%
Cc1cc2c(cc1S(=O)(=O)C(C)CC(=O)NC1CCC(C)CC1)OCC(=O)N2 (configuration not stated) | inactive: -0.918%
O=C(CCCn1ncn2c(cc3occc32)c1=O)NCc1ccccc1F | inactive: -21.7%
Cc1cc(C)c2oc(C(=O)Nc3ccc(S(=O)(=O)Nc4ncccn4)cc3)cc(=O)c2c1 | inactive: 9.11%
CCc1ccc2c(c1)NC(c1ccc(F)cc1)=NC(c1ccncc1)=N2 | inactive: -25%
COc1ccccc1NC(=O)c1sc(-c2ccc(Cl)cc2)cc1N | inactive: -19.9%
O=C(Nc1ccccc1C(F)(F)F)c1cc2nc(-c3ccccc3)cc(-c3ccccc3)n2n1 | inactive: 0.396%
CCCS(=O)(=O)c1nc(S(=O)(=O)c2ccc(C)cc2)c(NCCCOC(C)C)s1 | inactive: -34%
COc1ccc2nc(SCC(O)c3cccc(Br)c3)[nH]c2c1 (configuration not stated) | inactive: -10.3%
COc1cccc2c1cc1c(=O)n(CC(=O)N3CCN(c4ccc(F)cc4)CC3)nc(C)n12 | inactive: -7.92%
O=C(Cn1nc(N2CCN(c3ccccc3)CC2)ccc1=O)NCc1ccccc1F | inactive: 9.91%
COc1ccc(-c2cn3c(n2)sc2cc(C(=O)NCCCc4ccccc4)ccc23)cc1 | inactive: 21.7%
CCN(CC)C(=O)CSc1nc2cc3c(cc2c(=O)n1CCCC(=O)NCc1ccc2c(c1)OCO2)OCO3 | inactive: -18.8%
Cc1nn(-c2ccc(N3CCCCC3)nn2)c(C)c1CCC(=O)NCc1ccccc1 | inactive: -7.53%
Cc1ccc(Sc2ccc(N3CCCC(C(=O)Nc4ccc(F)cc4)C3)nn2)cc1 (configuration not stated) | inactive: 12.2%
Cc1ccc(-c2nnc(SCC(=O)NC(C)(C)C)nc2-c2ccc(C)cc2)cc1 | inactive: -19%
Cc1cccc(C(=O)Nc2ccccc2OCc2cc(=O)n3ccccc3n2)c1 | inactive: 0.444%

— PubChem BioAssay AID1346428 (National Center for Advancing Translational Sciences (NCATS), 2018)
